# Results taken from the supplement of paper PMC11417369.
# Some of the results follow.
# System: PF3D7_0420300 AP2 domain 1 (GST-tagged)
# Test: gcPBM binding intensity (ln(normalized median fluorescence intensity)); higher = stronger DNA binding
# Outline: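 Binding intensity is defined as the maximum Masliner-normalised natural-log median intensity across replicate spots for either probe orientation. It was measured on an Agilent 4 × 180k array of primer-extended double-stranded 36-bp intergenic genomic probes and negative controls, to which GST-tagged P. falciparum DNA-binding domains made in E. coli were applied for 1 h in 1× PBS with 1% milk, 0.2 mg/ml BSA, 0.5% salmon testes DNA and 0.03% Triton X-100. Detection was by Alexa488 anti-GST antibody and scanning at 488 nm.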
row,Sequence,gcPBM binding intensity (ln)
1,ATATAATGAATTATTAGAAAATAAAATGAATAAAGT [CACACA_negctrl_site690],9.58
2,GATTTTTAAAATATCACACATAAAAAAAAAAAAAAA [CACACA_site5516],8.64
3,AAAAAAATTCTGACTTGTACATATAAAATTTACAAA [XGTACX_site4408],8.78
4,TTTGTCATTTTATTATGTACTCAGCATATAGGGGGG [XGTACX_site505],10.5
5,TAATTTAATAATTAGACACACATGTGGAAAATAAAA [CACACA_site5401],9.46
6,ACATATATATAAAGGTGTACACATATATATATATAT [XGTACX_site4779],9.37
7,TAAGAAAAAAGTAAATGTACAGAGAAAATTATCTAT [XGTACX_site7374],9.39
8,ATTTATTACAAATGAATGCACTATATCTTAATTTTG,9.17
9,ATAATTTTGATTATCACACATATATATATATATATG [CACACA_site5882],9.24
10,ATATATTTCCTGAGGAGTACTATGAAAGACAAAAAA [XGTACX_site5628],9.21
11,TAATCTCATAAAACCGCACACACATAAAATTTGCAT [CACACA_site3890],9.79
12,TTTTTAATAATCTCTCAAAATGTTCTTATATTTTAC [CACACA_negctrl_site1691],9.03
13,GAGAAATGGGGACACACACACATATTATAGATATAT [CACACA_site6829],10.1
14,TTGTTTGATATCTTTGTCACGAAAAAAATATATATA [GTGCAC_negctrl_site54],9.04
15,TAAGGATAAAATAAATGTACATATGTAAAATTATTA [XGTACX_site4170],9.21
16,ATACTAAAGAAACACACACACATATATATATAGAAT [CACACA_site100],10.3
17,TTTACACCCTAAAAATGTACAAGAAAGATTATATTA [XGTACX_site1102],9.03
18,TTAACAGTAAAACACAGTACATATATACTTAAAACA [XGTACX_site1930],9.37
19,ATTTTTTTCCTAATGGTGCGAATAAATATCCATACC,9.13

row,Sequence,gcPBM binding intensity (ln)
1,AAAGCTTACATATACACACATACATAAATTCATAAA [CACACA_site2469],9.59
2,TTTTTTTATTATACTAGTACATATATATACAGCACA [XGTACX_site3464],9.24
3,AAAAAAAAAAAAGGAACACACAAGTAACAATAAATT [CACACA_site2481],9.98
4,TTTTCCTTTACATAATGTACACAAAAAAAAAAAAAA [XGTACX_site716],8.81
5,GTTACTGCATACATAACACACATATTCAAAACCCAT [CACACA_site5856],9.62
6,AATACAGACAGACACACACACAAAATAAAATACAAA [CACACA_site245],10.1
7,TCTTTTTTTTGAATTTGTACATAAGACAATAAAAAA [XGTACX_site4682],8.69
8,CATCATAGAGTGGAGTGTACAAATATGTCAACATAT [XGTACX_site2264],9.23
9,GTCTATAACTATTGCGCACACTTTAAAAAAAAAGAA [CACACA_site1003],9.27
10,TATATATATATATAATGTACATAATAATAATACATC [XGTACX_site5587],9.44
11,TAGAAGCATTGACACACACACATACATACACATACA [CACACA_site6802],10.1
12,CTAGACTTTATTAATTGTACATATGTGTATTTTATA [XGTACX_site480],9.26
13,ATATTAAGGTTTATATTTTAACTTATTATTTTATTC [CACACA_negctrl_site795],9.3
14,CATATCCTTACGAACTGTACAATATTAAGAATAAAA [XGTACX_site1651],9.14
15,ATATATTCAATTCATACACACACAATTTAAGAATGA [CACACA_site9289],9.79
16,GTAAAAAGATAATGAAGTACATTTTTTCATTTTTAT [XGTACX_site5579],9.1
17,AAAAAAAAAAAACACACACACACACCCATATACATA [CACACA_site2664],10.3
18,ATTTATTTTTTTATCACACATTTGTGAAATGTGCAT [CACACA_site5869],9.29
19,ATAAAAAAATCAGACACACACACGTAAACCCATACA [CACACA_site2773],9.91

row,Sequence,gcPBM binding intensity (ln)
1,ACATATTTATATATGTGTACATAAATATTCTTTTAA [XGTACX_site8238],8.98
2,ATATATATATTTATAGTGCATTTATATTAAAATATC [GTGCAC_site9818],9.2
3,TCAAATAGAAAATAAAGTACTTAATTTTTAGGAACA [XGTACX_site1446],9.08
4,TTGAATATTTAAAAACGTACATAAAATTATTTGATT [XGTACX_site5422],9.01
5,ATATTTATATTTTTTTGTACATATATAATTTTATAA [XGTACX_site4151],9.22
6,ATATATATTTATATATGTACATATTAATATATATAT [XGTACX_site1144],9.12
7,TTATAGTATTTATAATGTACAAATATATTTTATTTT [XGTACX_site5015],9.09
8,CAATGTTAATATAATACACACAATATGTATTTGTCT [CACACA_site1162],9.49
9,ATCCATCTTTTATATAGTACTTTATAATATATATAT [XGTACX_site8064],9.53
10,TTGTTAATATATATATGTACTTATTTATTTATTTAT [XGTACX_site2274],9.37
11,TTTGAATTTTTTAACACACACATGTCTGGATATATA [CACACA_site1645],9.78
12,TTTTCCTTAACACACGTTTATATAAAAAATTAAAAT [XGTACX_negctrl_site115],8.98
13,GAAAAAAAAAAAAAAAGTACATGTCATAAATTGTAT [XGTACX_site1461],9.2
14,GAGCTTTGGATGAAAGCATGCGATGAATGGATAAAA [TGCATGCA_site786],8.95
15,AAATTAAAATATATATGTACATATATATATATATAT [XGTACX_site7844],8.94
16,ATAAAAATAAATAAATGTACATATATATATATATAT [XGTACX_site1277],9.13
17,TAAATAGGAAAACCTATACACACTTTAAAAAAAATA [CACACA_site1621],9.25
18,TAAATTAAAAAAAAAAACAAAAAAAAAGCAACAAAA [CACACA_negctrl_site1318],9.52
19,AACACAAATAAGTATTTGGATTATATTACATTTATA [CACACA_negctrl_site465],9.18
